Source: the supplement of paper PMC12230231

System: SIVsab (simian immunodeficiency virus of sabaeus monkeys), single-cycle GFP reporter, in CRFK cells
Experiment: enrichment among uninfected cells over input (fold); higher = stronger restriction
Method: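 Pools of CRFK cells expressing variants of the TRIM5α v1 loop were challenged with the single-cycle reporter, sorted by GFP and sequenced; mean of two replicates.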

[1] = library: insertions and deletions

| Sequence | enrichment (library: human / rhesus combinations) | enrichment [1] |
| --- | --- | --- |
| MASGILVNVKEEVTCPICLELLTQPLSLDCGHSFCQACLTANHKKSMLDKGESSCPVCRISYQPENIRPNRHVANIVEKLREVKLSPEGQKVDHCARHGEKLLLFCQEDGKVICWLCERSQEHRGHHTFLTEEVAREYQVKLQAALEMLRQKQQEAEELEADIREEKASWKTQIQYDKTNVLADFEQLRDILDWEESNELQNLEKEEEDILKSLTNSETEMVQQTQSLRELISDLEHRLQGSVMELLQGVDGVIKRTENVTLKKPETFPKNQRRVFRAPDLKGMLEVFRELTDVRRYWVDVTVAPNNISCAVISEDKRQVSSPKPQIIYGARGTRYTFPTFTNFNYCTGILGSQSITSGKHYWEVDVSKKTAWILGVCAGFQPDAMCNIEKNENYQPKYGYWVIGLEEGVKCSAFQDSSFHTPSVPFIVPLSVIICPDRVGVFLDYEACTVSFFNITNHGFLIYKFSHCSFSQPVFPYLNPRKCGVPMTLCSPSS [human TRIM5α, 330-340 = GARGTRYTFPTFT] | 0.612 ± 0.056 | – |
| MASGILVNVKEEVTCPICLELLTQPLSLDCGHSFCQACLTANHKKSMLDKGESSCPVCRISYQPENIRPNRHVANIVEKLREVKLSPEGQKVDHCARHGEKLLLFCQEDGKVICWLCERSQEHRGHHTFLTEEVAREYQVKLQAALEMLRQKQQEAEELEADIREEKASWKTQIQYDKTNVLADFEQLRDILDWEESNELQNLEKEEEDILKSLTNSETEMVQQTQSLRELISDLEHRLQGSVMELLQGVDGVIKRTENVTLKKPETFPKNQRRVFRAPDLKGMLEVFRELTDVRRYWVDVTVAPNNISCAVISEDKRQVSSPKPQIIYGARGTRYQTFGILGSQSITSGKHYWEVDVSKKTAWILGVCAGFQPDAMCNIEKNENYQPKYGYWVIGLEEGVKCSAFQDSSFHTPSVPFIVPLSVIICPDRVGVFLDYEACTVSFFNITNHGFLIYKFSHCSFSQPVFPYLNPRKCGVPMTLCSPSS [human TRIM5α, 7-codon deletion at 340] | – | 1 ± 0.57 |
| MASGILVNVKEEVTCPICLELLTQPLSLDCGHSFCQACLTANHKKSMLDKGESSCPVCRISYQPENIRPNRHVANIVEKLREVKLSPEGQKVDHCARHGEKLLLFCQEDGKVICWLCERSQEHRGHHTFLTEEVAREYQVKLQAALEMLRQKQQEAEELEADIREEKASWKTQIQYDKTNVLADFEQLRDILDWEESNELQNLEKEEEDILKSLTNSETEMVQQTQSLRELISDLEHRLQGSVMELLQGVDGVIKRTENVTLKKPETFPKNQRRVFRAPDLKGMLEVFRELTDVRRYWVDVTVAPNNISCAVISEDKRQVSSPKPQIIYGARGTQIIYGARGTRYQTFVNFNYCTGILGSQSITSGKHYWEVDVSKKTAWILGVCAGFQPDAMCNIEKNENYQPKYGYWVIGLEEGVKCSAFQDSSFHTPSVPFIVPLSVIICPDRVGVFLDYEACTVSFFNITNHGFLIYKFSHCSFSQPVFPYLNPRKCGVPMTLCSPSS [human TRIM5α, 9-codon duplication at 326] | – | 0.39 ± 0.32 |
| MASGILVNVKEEVTCPICLELLTQPLSLDCGHSFCQACLTANHKKSMLDKGESSCPVCRISYQPENIRPNRHVANIVEKLREVKLSPEGQKVDHCARHGEKLLLFCQEDGKVICWLCERSQEHRGHHTFLTEEVAREYQVKLQAALEMLRQKQQEAEELEADIREEKASWKTQIQYDKTNVLADFEQLRDILDWEESNELQNLEKEEEDILKSLTNSETEMVQQTQSLRELISDLEHRLQGSVMELLQGVDGVIKRTENVTLKKPETFPKNQRRVFRAPDLKGMLEVFRELTDVRRYWVDVTVAPNNISCAVISEDKRQVSSPKPQIIYGARGTRYQTFVNFGILGSQSITSGKHYWEVDVSKKTAWILGVCAGFQPDAMCNIEKNENYQPKYGYWVIGLEEGVKCSAFQDSSFHTPSVPFIVPLSVIICPDRVGVFLDYEACTVSFFNITNHGFLIYKFSHCSFSQPVFPYLNPRKCGVPMTLCSPSS [human TRIM5α, 4-codon deletion at 343] | – | 0.603 ± 0.48 |

± gives the standard deviation of the averaged measurements. Restriction of a single-cycle SIVsab GFP reporter by TRIM5α v1-loop variants in CRFK cells. Human variants: read share among cells still uninfected after two challenges over input, higher = gained restriction. Rhesus variants: share among infected cells over input, higher = lost restriction. Reporter dose not given per row. No active / inactive call per row; the paper calls a change when both replicates lie above its controls (mean + 2 SD of stop or wild-type variants, or the top frameshift score). Residues outside the varied loop are taken from Swiss-Prot. The paper reads the human single-substitution scores as noise; they and the rhesus combinations repeat poorly (rank correlation 0.3 to 0.4), indel scores repeat only for the top variants, rhesus substitutions well (0.9).
